Experimental data from patent US20250074972A1, “ANTIBODIES AND METHODS FOR GENERATING THE SAME” (priority 2021, published 2025).

T1: immobilised Phr2 peptide (Candida albicans, UniProt O13318)
T1 construct: purchased
T1 sequence (O13318 whole entry, looked up): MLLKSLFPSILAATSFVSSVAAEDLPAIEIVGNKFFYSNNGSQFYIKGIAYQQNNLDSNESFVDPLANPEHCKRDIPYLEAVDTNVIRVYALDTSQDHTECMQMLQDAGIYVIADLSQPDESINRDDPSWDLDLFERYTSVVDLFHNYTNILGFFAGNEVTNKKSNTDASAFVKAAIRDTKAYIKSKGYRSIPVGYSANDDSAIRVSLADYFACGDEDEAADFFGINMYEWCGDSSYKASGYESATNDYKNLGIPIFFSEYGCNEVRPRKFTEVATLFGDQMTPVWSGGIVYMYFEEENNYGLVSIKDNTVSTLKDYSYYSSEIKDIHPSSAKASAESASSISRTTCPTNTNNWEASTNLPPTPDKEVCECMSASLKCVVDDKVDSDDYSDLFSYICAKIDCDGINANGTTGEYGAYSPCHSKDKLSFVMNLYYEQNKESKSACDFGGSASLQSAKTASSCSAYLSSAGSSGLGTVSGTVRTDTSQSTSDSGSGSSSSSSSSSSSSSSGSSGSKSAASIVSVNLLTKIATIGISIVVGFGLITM

B1: 3C5: Phr2 antibody; SEQ ID NO: 32 (protein)
scFv: EVQLLESGGGVVQPGRSLRLSCAASGFTFSSYGMHWVRQAPGKGLEWVAVISYAGSNKYYADSVKGRFTISRDNSKNTLYLQMNSLRAEDTAVYYCAKGQRMDVWGKGTMVTVSSLEGGGGSGGGGSGGGAS[letters of about 100 residues omitted]
modifications: 3C5 Amino Acid Sequence
B2: 1G4: anti-Pga31 single chain antibody; SEQ ID NO: 4 (protein)
scFv: EVQLLESGGGLVQPGGSLRVSCAASGFTFNSYAMSWVRQAPGKGLEWVSTVSGSGGSTYYADSVKGRFTISRDNSKNTLYLQMNSLRAEDTAVYYCARGYFDLWGRGTLVTVSSLEGGGGSGGGGSGGGAS[letters of about 100 residues omitted]
modifications: 1G4 Amino Acid Sequence

How the values were obtained:
[1] = molecular target: T1, immobilised Phr2 peptide; experiment: Phr2 scAbs binding ELISA, immobilised Phr2 peptide
[2] = system: other CWP peptides; experiment: Phr2 scAbs cross reactivity ELISA, other CWP peptides; format: binding, Candida albicans
[3] = system: total cell lysates of WT C. albicans (SC5314); experiment: Pga31 scAbs binding ELISA on total cell lysates of WT C. albicans treated with or without caspofungin; set-up: species or system Candida albicans; details: absorbance 450 nm, cells treated or untreated with 0.032 μg/ml caspofungin
Protocol: (§1) The reaction was stopped using 1 M H2SO4 and the absorbance values measured using a microplate reader at absorbance 450 nm. For total cell lysate ELISA, C. albicans WT and pga31 single mutant strain overnight cultures were inoculated into fresh YPD at OD600 nm of 0.1-0.2, grown for 3-4 h at 30° C. until OD of 0.5-0.6 was reached and then treated with caspofungin (0.032 μg/ml) for 90 min. After 90 min growth cells were harvested, centrifuged for 5 min at 4000 rpm and washed and cell lysate was prepared. This was used to coat ELISA plates at 37° C. for 1 h, plates were washed and blocked with 2% MPBS as before, followed by the two-fold serial dilution of scAb samples.

[4] = system: cell lysates of pga314 mutant strain; experiment: Pga31 scAbs binding ELISA on cell lysates of pga31 mutant strain; set-up: species or system Candida albicans; details: with or without 0.032 μg/ml caspofungin
Protocol: as §1

Molecule | binding to immobilised Phr2 peptide [1] | cross reactivity to other CWP peptides [2] | scAb binding to lysates of caspofungin treated versus untreated cells [3] | scAb binding to mutant strain lysate [4]
B1 | Specific binding | No cross reactivity | – | –
B2 | – | – | increase in scAb binding | lack of scAb binding
